One assay concerns A549/ATCC NSCLC. Briefly: NCI-60 one-dose screen, 48 h (100 = growth as untreated, 0 = no growth, -100 = all killed). To be noted: 25 µM.
The test system of a further assay is COLO 205 colon. The assay is described as above. To be noted: 0.25 µM.

Structures are written as SMILES. The source holds several records for some structures; these can differ, active in one and inactive in another.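 Treatment: one concentration, 48 hours, 96-well format. Scoring: percent growth, with anything below 10 considered active.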 The source holds more than one record for some entries. This list holds those alone. The source may hold further records. This drug was run again and again over the years, at its own concentration, as given; each value is one run. Signs of the kind (2×) give the number of equal values in this list.

`COc1cccc2c1C(=O)c1c(O)c3c(c(O)c1C2=O)C[C@@](O)(C(=O)CO)C[C@@H]3OC1CC(N)C(O)C(C)O1` (stereo not given in full): the growth result is “active: 6.05, 7.09, 2.13, 3.9, 1.6, -17.4, 8.65, -1.22, -4.4, 6.15, 2.09, 6.74, 5.61, 6.6, 2.18, 0.937, 7.8, -24.4, -2.31, -6.33, 2.31, 9.76, 5.42, 1.8, 6.86, 8.12, 3.06, 6.16, 6.94, 3.44, 2.26, 6.67% and inactive: 54.8, 12.3, 11.5, 16.9, 10.7, 11.3, 11.9%” with A549/ATCC NSCLC (runs of 1995); “active: 5.85, 8.32, -2.23, 5.33, 7.77, 6.43, -19.2, -21.5, 4.71, -22.9, 5.05, 7.74, 3.07, 6.52, -11.4, 9.7, 5.21, 7.03, -16.4, 0.847, -19.5, 6.7, 8.26, 7.55, 2.84, 8.84, 6.4, 6.95, 1.9, 6.46, -17.7, 6.41, 0, -5.69, 0.359, 8.01, 5.73, 5.87, -41.8, 7.54% and inactive: 12.2, 10.5, 10.7, 13.4, 15.5, 10.2, 12.5, 12.3, 15.6%” in the assay with A549/ATCC NSCLC (runs of 1996); “active: 8.53, -3.31, 1.25, 6.03, 8.72, 0.802, 9.35, 6.99, 3.81, 3, 9.37, -4.84, -25.5, 2.55, 1.46, -25.2, 4.64, 3.33, 1.15, 1.56, 2.64, 6, 1.1, 7.74, -14.9, 6.67, 4.03, -20.7, 2.99, -42, 1.66, 3.26, 2.9, -5.02, 6.35, 3.93, 3.2, 2.12, 9.04, -9.47% and inactive: 13.1, 13.6, 97.9, 12.4, 10.9, 20.3%” with A549/ATCC NSCLC (runs of 1997); “active: -41, -1.09, 7.37, -9.22, 5.38, 9.23, 0, 6.5, -7.9, -48.4, 5.75, -33.9, 2.54, -29.2, 3.57, -2.1, -11.5, -19.1, 3.71, -3.8, -20.9, 1.52, -8.73, -25.3, 0.803% and inactive: 13.7%” with A549/ATCC NSCLC (runs of 1998); “active: 0.966, 2.64, -4.18, 2.03, -7.99, -37.2, -81.8, -28.3, -14, 0.277, 3.11, -16.9, -100, -64, -60.2% and inactive: 30.9%” in the assay on A549/ATCC NSCLC (runs of 1999); “active: 0.543, -100, -19.3, -49.2%” in the assay on A549/ATCC NSCLC (runs of 2000). In addition, the growth result with COLO 205 colon (runs of 2006) is “inactive: 42.2%, 35.3%”; in the assay on COLO 205 colon (runs of 2007), “inactive: 43.7 (2×), 55.6 (2×), 47.4, 45.2, 50, 48.4, 58.8, 49.5, 68.6, 54.9, 50.7, 49.8 (2×), 57.2, 46.7, 32.4, 51.5 (2×), 55, 56.9, 90.9, 39.8, 49.6, 54.2, 58.6, 70, 53.8, 54.5, 55.4 (2×), 51.4, 44.9, 35.4, 40.2, 36.9, 36.3, 66.9% and active: -17.1%”; in the assay with COLO 205 colon (runs of 2008) it was “inactive: 51.8 (2×), 59.1, 45.6, 39.1, 71.4, 57.4, 59.2, 60.9, 51.6, 49.2, 58.2 (3×), 40.7, 41.1, 41.4, 35.3, 28.3, 33, 48.5, 41.2, 34, 50.4, 49.5, 113, 47.2, 40.2, 52.7, 33.2, 69.9, 30.4, 56.9, 56.1, 49.6, 53.6, 46, 65.9, 64.9, 46.3, 48.4, 60.7, 65.4, 68.3, 41, 43, 56.7, 28.7, 51.1, 46.6, 48.6, 43.7%”; in the assay with COLO 205 colon (runs of 2009), “inactive: 57.3, 62.2, 43.4, 43.1, 35.1, 43.7, 53.2, 66.6, 58.4, 53, 55.2 (2×), 66.3, 49.4, 59.5, 53.8 (2×), 54.1 (2×), 32.3, 25.1, 48.3, 49.2, 51.2, 36, 43.8, 59.7 (2×), 50.2, 51.8, 39.3, 42.8, 57.7 (3×), 50 (2×), 51.4, 75.1, 58.1, 34.9, 53.7, 46.9 (2×), 40.9, 48.4, 46.2, 44.3, 54.6, 59.2 (2×), 56, 57.8, 52.9, 69.6, 51.3, 47.4, 51.9, 43.3, 46.5, 44.7%”; in the assay with COLO 205 colon (runs of 2010), “inactive: 57.2, 58.2, 57.7, 42.4, 54, 55.2 (2×), 51.8, 48.7 (2×), 64.3, 50.2 (2×), 53.2, 51.9 (2×), 57.8, 49.8, 46.1, 55.9, 41.3, 52.8, 53.6 (2×), 44.3, 43.7, 50, 41.4, 53 (2×), 44.1, 51.5, 39, 62.1, 54.5, 48.6, 59, 52.9, 47.5, 45.6, 48.9, 55.4, 51.4, 52.7, 53.5, 45.5, 60.9, 61.3, 54.4, 57.4, 61.4%”; in the assay on COLO 205 colon (runs of 2011) it was “inactive: 51.4, 49.8, 51.3, 51.8, 57.6, 48.8, 46.9, 46.5, 54.4, 52.9, 55.9, 60 (2×), 55.6, 28, 55.7 (2×), 72.5, 58.3, 55, 60.9, 58.7, 61.7, 57.3 (2×), 56.5, 53.2, 63.4, 53.3, 31.5, 48.4, 43.1, 47.3, 37.1 (2×), 50.1, 50, 42.3, 52, 44.4, 39.3, 59.6, 42.6, 36.9, 45.1, 61.8, 62.7, 60.3, 48.5, 43, 46.4, 49.5, 60.5, 58.5, 53.8%”. Further, the growth entry with COLO 205 colon (runs of 2012) is “inactive: 48.8 (3×), 38.7, 42.3 (2×), 44.2 (2×), 60.2 (2×), 51.8, 53.1, 56.2 (2×), 57.9 (2×), 47.9, 51.2 (2×), 46.9, 46 (3×), 37.3, 32.9, 39.1, 48 (2×), 51.3, 43.2, 52.7, 50.5, 46.2, 53, 48.3, 56.5, 53.3, 47.5, 59.7, 51.4, 45.1, 56.9 (2×), 65.5, 59.4, 52.6, 52, 61.3, 68.9, 56, 55.4, 65.2, 70.8, 50.4, 39.8, 62.1, 55.6, 52.3, 57.4, 51, 40.2, 42.8, 58.1, 46.6, 34.2, 36.4, 46.4, 39.5%”; with COLO 205 colon (runs of 2013) it was “inactive: 41.5, 48.6, 39.4, 40.4, 62.8, 58.7, 52, 53.7, 53, 58.4, 54.6, 49.6 (2×), 56.8 (2×), 65.4 (2×), 49.5, 50.7 (2×), 50.2 (2×), 51.5, 60.1 (3×), 59.8 (2×), 66.2, 56.5, 63.4 (2×), 57.5, 68.9, 71.2, 64.1, 66.7, 51.6, 61, 59, 52.6, 63.5, 55.4 (2×), 56.7, 61.5, 58.9 (2×), 52.9, 55.6, 63.9, 47.5, 44.6, 51, 41.7, 51.4, 54.2, 59.6, 66.1, 55.7, 53.2 (2×), 57.2, 39.1, 40.7, 41.1, 42.5, 43.1, 42.6, 49.7, 53.8, 54.1, 58.6, 47.3, 54.5, 38.9, 47.1, 47.2, 51.3, 46%”; with COLO 205 colon (runs of 2014), “inactive: 51.6, 62.5, 43, 37.4, 35.5, 45.5 (4×), 53.2, 39, 37.2 (3×), 32.9, 30.1, 55, 27.9, 47.4 (2×), 37.6 (2×), 35.7, 38.5 (2×), 47.5 (4×), 56.1, 40.6, 42, 46.1, 47.6 (2×), 46.6, 50.2, 44.4, 42.2, 51.3, 51.9, 44.8 (2×), 47.3, 55.2, 55.6 (2×), 49.8, 51.2, 51, 57, 55.7, 48.2, 48.4 (2×), 46.3 (2×), 46.4, 57.2, 42.1 (2×), 33.4, 40.7, 44.2, 40, 38, 39.5, 43.1 (2×), 42.3, 46.2, 36.8, 48.6 (2×), 48.3, 43.8, 37.3, 38.2, 34.3, 40.8, 35.8%”.

Values taken from PubChem BioAssay (NCI).
